Screen size: about 310,000 compounds; about 2,200 (0.71%) showed an effect of 50% or more. The effect is printed as a negative number. This is one part of the list.
The compounds below were run against human ether-à-go-go-related gene (hERG) potassium channel (human, UniProt Q12809) (assay: primary screen, population patch clamp on CHO cells stably expressing hERG).
Sequence of human ether-à-go-go-related gene (hERG) potassium channel (Q12809 whole entry, looked up): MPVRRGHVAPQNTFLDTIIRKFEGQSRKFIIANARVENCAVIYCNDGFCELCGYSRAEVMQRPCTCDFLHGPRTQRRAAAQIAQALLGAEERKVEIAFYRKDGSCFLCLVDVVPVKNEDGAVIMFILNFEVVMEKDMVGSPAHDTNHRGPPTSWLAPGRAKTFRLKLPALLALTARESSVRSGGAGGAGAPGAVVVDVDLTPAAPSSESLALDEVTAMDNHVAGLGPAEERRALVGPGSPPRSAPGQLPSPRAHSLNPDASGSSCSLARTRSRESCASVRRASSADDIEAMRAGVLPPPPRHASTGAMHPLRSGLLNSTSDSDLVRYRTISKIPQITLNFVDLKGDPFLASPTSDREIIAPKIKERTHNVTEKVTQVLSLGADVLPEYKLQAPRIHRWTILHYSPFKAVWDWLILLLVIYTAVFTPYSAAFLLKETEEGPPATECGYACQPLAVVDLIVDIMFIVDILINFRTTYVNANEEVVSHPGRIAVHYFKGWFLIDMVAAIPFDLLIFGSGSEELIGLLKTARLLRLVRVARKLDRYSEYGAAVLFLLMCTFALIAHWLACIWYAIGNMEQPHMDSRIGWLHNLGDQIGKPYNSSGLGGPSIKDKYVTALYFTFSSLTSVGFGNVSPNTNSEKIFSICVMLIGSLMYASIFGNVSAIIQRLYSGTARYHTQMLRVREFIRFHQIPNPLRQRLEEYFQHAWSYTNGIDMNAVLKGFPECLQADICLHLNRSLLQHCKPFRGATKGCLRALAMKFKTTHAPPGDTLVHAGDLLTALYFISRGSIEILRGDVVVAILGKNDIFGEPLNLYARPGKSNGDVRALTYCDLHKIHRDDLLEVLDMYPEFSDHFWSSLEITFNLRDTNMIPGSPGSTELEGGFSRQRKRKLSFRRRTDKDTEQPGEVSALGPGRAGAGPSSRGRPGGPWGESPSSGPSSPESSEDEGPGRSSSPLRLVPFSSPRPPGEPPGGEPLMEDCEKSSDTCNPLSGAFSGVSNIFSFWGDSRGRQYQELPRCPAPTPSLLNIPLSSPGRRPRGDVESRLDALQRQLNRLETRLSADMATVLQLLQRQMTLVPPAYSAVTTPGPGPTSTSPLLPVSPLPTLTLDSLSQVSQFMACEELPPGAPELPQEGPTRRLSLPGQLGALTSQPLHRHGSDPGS

Row | Compound | hERG current change (%, negative = inhibition) at 1uM
1 | COc1ccc2nc(Nc3nc4cc5c(cc4s3)OCCO5)sc2c1 | 6.33%
2 | COc1cc(NC(=O)CSc2nc3c(C)ccc(C)c3cc2C)c(C(=O)O)cc1OC | 10.5%
3 | COc1ccc(Cc2nn3c(-c4ccccc4Br)nnc3s2)cc1 | 5.51%
4 | Cc1cc(O)c(/C=N/Nc2cccc(Cl)c2)c(=O)o1 | 6.27%
5 | O=C(CSc1nc2ccccc2c(=O)n1CC1CCCO1)NCC1CCCO1 (stereo not shown) | -4.25%
6 | Cn1c(-c2ccccc2)cnc1NCc1cc2c(cc1[N+](=O)[O-])OCO2 | -10.5%
7 | CC(C)CN(C(=O)CSc1nnc2ccccn12)c1c(N)n(CC(C)C)c(=O)[nH]c1=O | 5.22%
8 | Nc1c2c(nc3ccccc13)CCN(Cc1ccccc1)C2 | -23.5%
9 | COc1ccccc1N(CC(=O)NC(C)(C)C)S(=O)(=O)c1cccs1 | 8.12%
10 | O=C(Nc1ccc(S(=O)(=O)Nc2ccccc2)cc1)C1COc2ccccc2O1 (stereo not shown) | 7.69%
11 | COc1ccccc1C(=O)NCCC(=O)N(C)CC(=O)Nc1ccccc1Br | 4.68%
12 | CC(NC(=O)c1ccc(S(=O)(=O)Nc2ccccc2)cc1)c1ccc(S(N)(=O)=O)cc1 (stereo not shown) | 5.64%
13 | COC(=O)C1=C(c2cc3ccccc3o2)C[C@@H]2CC[C@H]1N2C(=O)N1CCCCC1 | 2.04%
14 | Cc1ccc(OCc2nnc(SCC(=O)Nc3cc(C)on3)n2C)cc1 | 11.7%
15 | O=C(CCC(=O)c1cccs1)NC1CCCCCC1 | 1.1%
16 | O=C1c2cccnc2C(Nc2ccc(F)c(Cl)c2)N1Cc1cccs1 (stereo not shown) | 3.51%
17 | O=S(=O)(c1cccc(-c2nnco2)c1)N1CCOCC1 | 12.1%
18 | CCOc1ccc2oc(C(=O)OCC(=O)NC3CCCC3)c(C)c2c1 | 11.9%
19 | CCOc1ccc(CCNC(=O)CSc2ncn[nH]2)cc1OCC | 8.24%
20 | CCO[C@H]1OC(C(=O)O)=C[C@@H](c2ccccc2)[C@@H]1CCCO | -1.35%
21 | CCCc1nnc(NC(=O)c2ccc(S(=O)(=O)N(C)c3ccccc3OC)cc2)s1 | 5.64%
22 | COCCN(C(=O)Cc1coc2cc(C)c(C)cc12)c1c(N)n(Cc2ccccc2)c(=O)[nH]c1=O | 6.85%

Row | Compound | hERG current change (%, negative = inhibition) at 1uM
23 | O=S(=O)([O-])CCC[N+]1(CC#Cc2ccccc2)CCCCC1 | 20.2%
24 | CCC(C)NS(=O)(=O)c1ccc(NC(=O)c2ccc([N+](=O)[O-])cc2Cl)cc1 (stereo not shown) | 0.587%
25 | CC(C)C(C)(C#N)NC(=O)CSc1nc(C2CCCCC2)n(-c2ccccc2)n1 (stereo not shown) | 4.11%
26 | CC1CC(=O)N(c2ccc(NCCc3ccc(O)cc3)c([N+](=O)[O-])c2)C1=O (stereo not shown) | 9.4%
27 | Cc1cc(=O)oc2c(C)c(OCC(=O)N3CCN(Cc4ccccc4)CC3)ccc12 | -0.265%
28 | CNS(=O)(=O)c1ccc(C)c(S(=O)(=O)NC)c1 | 13.2%
29 | N/C(=N\N=C\c1ccnc2ccccc12)SC1CC(=O)N(c2ccc(Br)cc2)C1=O (stereo not shown) | 10.4%
30 | COc1ccc(-c2nnc(SCC(=O)NCc3cccs3)n2C)cc1 | 7.61%
31 | c1ccc(-c2nnc(-c3ccncc3)nc2-c2ccccc2)cc1 | 10.4%
32 | CCc1nc(C)ccc1OC(=O)C12CC3CC(CC(C3)C1)C2.Cl | -5.23%
33 | COc1ccc(C)cc1NC(=O)CSc1nnc2ccc(-c3cccnc3)nn12 | -2.6%
34 | COc1ccc(NC(=O)Cn2nnc(C(=O)NCc3cccc(OC)c3)c2N)cc1 | 10.9%
35 | COc1ccc(-c2csc(NC(=O)c3ccccc3NS(=O)(=O)c3ccc(F)c(F)c3)n2)cc1 | 13.6%
36 | COC(=O)c1cccc(NC(=O)c2cc3sccc3n2C)c1 | -7.6%
37 | Cc1ccc(/C(N)=N/OC(=O)c2cccc(Cn3cc(C(F)(F)F)ccc3=O)c2)cc1 | 11.6%
38 | COc1ccc(C)cc1S(=O)(=O)N(CC(=O)O)c1ccc(F)cc1 | 13.1%
39 | CCOC(=O)CNC(=O)/C(=C\c1ccc(F)cc1)NC(=O)c1ccccc1 | -11.7%
40 | N#Cc1ccc(COC(=O)c2cnc3ccccc3n2)cc1 | 6.75%
41 | O=C(COC(=O)c1ncc(Cl)c(Cl)c1Cl)Nc1ccccc1OC(F)F | 8.65%
42 | Cc1ccc(-c2ccc(=O)n(CCC(=O)NCCN3CCCCC3C)n2)cc1 (stereo not shown) | -36.2%
43 | COc1ccc(/C=C/C(=O)OCC(=O)NC(=O)NC(C)(C)C)cc1 | 16.1%
